# The campaign covered roughly 52,000 compounds. About 1,700 (3.3%) were called active. No stated cut-off is given here; in the data, active means survival mostly below about 52% (no sharp cut-off); inactive means mostly above about 56%. The list shows a part of the results.
# Tested on: Wild type
# Assay: growth inhibition of S. aureus wild type versus tarO mutant, primary screen, teichoic acid synthesis inhibitors, RN4220, OD600 (AID 463173)
# Details: S. aureus RN4220 wild type/DeltatarO growth, OD600, 18 h, active compounds read low, screened at 18.75 µg/mL (by protocol)
row,Structure (SMILES),survival
1,COc1cc(NC(=O)C(CCS(C)(=O)=O)N2Cc3ccccc3C2=O)cc(OC)c1OC (stereo not given),active: 14%
2,COC(=O)Cn1cnc2c1c(=O)[nH]c(=O)n2C,inactive: 118%
3,Cc1ccc(N2CC(c3nnc(NC(=O)c4ccco4)s3)CC2=O)cc1C (stereo not given),inactive: 81%
4,O=C(NC1CCCC1)c1ccc(CSc2nc3ccncc3n2Cc2ccc(F)cc2)cc1,inactive: 79%
5,COc1ccc(-n2cc(C(=O)NC(C)c3ccccc3)c3ccccc3c2=O)cc1 (stereo not given),inactive: 83%
6,CCN1CCN(c2cc(C)c3cc(NC(=O)/C=C/c4cccc(Cl)c4)ccc3n2)CC1,inactive: 62%
7,Cc1ccc(NC(=O)Cn2cc(S(=O)(=O)N3CCCC3)c(S(=O)(=O)N3CCCC3)c2)cc1C,inactive: 84%
8,CCOc1ccc(NC(=O)c2ccc(-c3cccc(Cl)c3C)o2)cc1,inactive: 66%
9,CCC(C#CCN1CCCCC1)(CC)OC(C)=O,inactive: 100%
10,CCOC(=O)c1cnc2c(ccc3ccccc32)c1Nc1ccc(OC)c(OC)c1,active: 5%
11,Cc1cccc(C2C=C(c3ccc(F)cc3)Nc3nc4ccccc4n32)c1 (stereo not given),inactive: 82%
12,O=c1c2cc3c(nc2ncn1Cc1ccccc1F)CCCC3,inactive: 73%
13,Cc1ccc(NC(=O)/C(C#N)=C/c2cn(CC(=O)NCc3ccco3)c3ccccc23)cc1Cl,inactive: 108%
14,Cc1ccc(OCC(O)CN)cc1 (stereo not given),inactive: 111%
15,CCOc1ccc(Cn2c(CNS(=O)(=O)c3ccc([N+](=O)[O-])cc3)nc3cccnc32)cc1,inactive: 87%
16,CN1CN2C(=O)N3CN(C)CN4C(=O)N(C1)C2C34 (stereo not given),inactive: 110%
17,COCCn1ccc2c(OCC(=O)NCc3ccc(F)cc3)cccc2c1=O,inactive: 81%
18,COc1ccc(C(=O)NCCSc2c(C)[nH]c3ccccc23)cc1,inactive: 109%
19,Cc1ccc(NC(=O)Nc2nnc(SCC(=O)N3CCC(C)CC3)s2)cc1,inactive: 82%
20,COc1ccccc1-c1cc(C(F)(F)F)nc(S(=O)(=O)CCCC(=O)Nc2ccc(F)c(Cl)c2)n1,inactive: 100%
21,COc1ccc(C(=O)N2CCC(c3c[nH]c4ccccc34)(c3c[nH]c4ccccc34)CC2)cc1,inactive: 61%
22,COc1ccc(NC(=O)c2cc(C3CC3)nc3c2c(C)nn3-c2ccc(C)cc2)cc1OC,inactive: 148%
23,CN(C)c1ccc(CNC(=O)C2CCN(S(=O)(=O)c3cn(C)cn3)CC2)cc1,active: -2%
24,COc1ccccc1CNC(=O)c1oc2c(c1C)-c1nn(Cc3ccc(Cl)cc3)cc1CC2,inactive: 81%
25,COc1ccc(NC(=O)c2sc3nc(-c4cc5cccc(OC)c5oc4=O)[nH]c(=O)c3c2C)cc1,inactive: 91%
